70 molecules from the supplement of paper PMC11348887 can be followed below.

Each structure is given as a SMILES string. Where a name gives a salt, the structure may show the parent alone. Some of the results follow. No stated cut-off is given here; in the data, active = -2 or less and inactive = the rest. Many values rest on one well or one pass, so single values are uncertain.
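Further: nuclei counted from DAPI counterstain by automated high-content image analysis, four fields per well at ×20 in 384-well plates, with sequential b-score then z-score normalization.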

The test system of this assay is hPSC-derived cortical neurons (WA09). In words: nuclei number (viability) z-score; higher = more surviving cells. The settings on record: 5 µM; treatment: days 7-14 after plating, readout day 21.
Take `CCn1cc(C(=O)O)c(=O)c2ccc(C)nc21` [Nalidixic acid]: the “nuclei number (z-score)” value is inactive: -0.661.
For `COc1ccc2cc(CCC(C)=O)ccc2c1` [Nabumetone], the “nuclei number (z-score)” value is inactive: 0.398.
On to `Oc1c(I)cc(I)c2cccnc12` [Diiodohydroxyquinoline], for which the “nuclei number (z-score)” value was inactive: 0.0215.
With `O=C(CCCN1CC=C(n2c(=O)[nH]c3ccccc32)CC1)c1ccc(F)cc1` [Droperidol], the “nuclei number (z-score)” value was inactive: 0.348.
The value for `CCO[C@@H]1OC(=O)C[C@@H]1NC(=O)[C@@H]1CCCN1C(=O)[C@@H](NC(=O)c1ccc(N)c(Cl)c1)C(C)(C)C` was inactive: 9.73; that for `Cc1ccc(NC(=O)c2ccc(CN3CCN(C)CC3)cc2)cc1Nc1nc(-c2cccnc2)cs1` [Masitinib (AB1010)] was inactive: -0.145.
With `COc1nc(C)nc(Cl)c1NC1=NCCN1` [Moxonidine], the “nuclei number (z-score)” value is inactive: -0.0368.
For the molecule `CCCC[C@@H](C=O)NC(=O)[C@H](CC(C)C)NC(=O)OCc1ccccc1` [Calpeptin], the “nuclei number (z-score)” value was inactive: 2.59.
The value for `O=C(Nc1cc(C(F)(F)F)ccc1N1CCCCC1)c1ccncc1` was inactive: -1.02; that for `COc1cc2nc(N3CCN(C(=O)c4ccco4)CC3)nc(N)c2cc1OC` [Prazosin HCl] was inactive: 0.342.
With `NCCS(=O)(=O)O` [Taurine], the “nuclei number (z-score)” value was inactive: 0.205.
Take `Cc1cc(Cn2cnc3c2CC(C(=O)O)N(C(=O)C(c2ccccc2)c2ccccc2)C3)ccc1N(C)C` (stereo not given): the “nuclei number (z-score)” value is inactive: 3.53.
On to `O=c1c(O)c(-c2cc(O)c(O)c(O)c2)oc2cc(O)cc(O)c12` [Myricetin], for which the “nuclei number (z-score)” value is inactive: -0.682.
Take `Cc1ccc(S(=O)(=O)NC(=O)NN2CC3CCCC3C2)cc1` (stereo not given) [Gliclazide]: the “nuclei number (z-score)” value is inactive: 1.1.
As for `O=C(O)CCNc1cc(N2CCc3ccccc3CC2)nc(-c2ccccn2)n1`, the “nuclei number (z-score)” value was inactive: -0.634.
`Cc1cc([N+](=O)[O-])ccc1NS(=O)(=O)c1cc(Cl)ccc1Cl`: the “nuclei number (z-score)” value is inactive: 0.286.
Next, `COc1ccc(COc2ccc(Cc3cnc(N)nc3N)cc2OC)cc1`: inactive: 0.788; `O=C([O-])c1ccccc1O.[Na+]` [Sodium salicylate]: inactive: 2.01; `COc1ccc2[nH]cc(CCNC(C)=O)c2c1` [Melatonin]: inactive: 0.0121.
On to `NC[C@H]1O[C@H](O[C@H]2[C@H](O[C@@H]3O[C@H](CO)[C@@H](O)[C@H]3O)[C@@H](O)[C@H](N)C[C@@H]2N)[C@H](N)[C@@H](O)[C@@H]1O` [Ribostamycin Sulfate], for which the “nuclei number (z-score)” value is inactive: -0.418.
Next, `Cc1ccc(C(=O)c2cc(O)c(O)c([N+](=O)[O-])c2)cc1` [Tolcapone]: inactive: 0.54; `O=C(N/N=C/c1ccc(O)c(O)c1)c1cc2ccccc2cc1O` [Dynasore]: inactive: 0.874.
As to `C=CC[C@@H]1/C=C(\C)C[C@H](C)C[C@H](OC)[C@H]2O[C@@](O)(C(=O)C(=O)N3CCCC[C@H]3C(=O)O[C@H](/C(C)=C/[C@@H]3CC[C@@H](O)[C@H](OC)C3)[C@H](C)[C@@H](O)CC1=O)[C@H](C)C[C@@H]2OC` [Tacrolimus (FK506)], the “nuclei number (z-score)” value was inactive: -0.266.
As to `CN1C2CCCC1CC(NC(=O)c1nn(C)c3ccccc13)C2` (stereo not given) [Granisetron HCl], the “nuclei number (z-score)” value was inactive: -1.55.
`CC(=O)O/N=C1\C(=O)N(Cc2cc(Cl)ccc2Cl)c2ccc(Cl)cc21`: the “nuclei number (z-score)” value was inactive: -0.264.
`Cc1ncc([N+](=O)[O-])n1CCO` [Metronidazole]: the “nuclei number (z-score)” value is inactive: 4.88.
For `O=C(Cc1cccc(OC(F)(F)F)c1)Nc1ccc(CCCCc2nnc(NC(=O)Cc3ccccn3)s2)nn1`, the “nuclei number (z-score)” value was inactive: -0.58.
As for `CCN(CC)CC#CCOC(=O)C(O)(c1ccccc1)C1CCCCC1` (stereo not given) [Oxybutynin chloride], the “nuclei number (z-score)” value is inactive: -0.503.
Regarding `CCN(CC)CC#CCOC(=O)C(O)(c1ccccc1)C1CCCCC1` (stereo not given) [Oxybutynin], the “nuclei number (z-score)” value was inactive: -0.906.
In the case of `CCN(Cc1ccncc1)C(=O)C(CO)c1ccccc1` (stereo not given) [Tropicamide], the “nuclei number (z-score)” value was inactive: 0.442.
Consider `CC(C)C(=O)OCC(=O)[C@@]12O[C@H](C3CCCCC3)O[C@@H]1C[C@H]1[C@@H]3CCC4=CC(=O)C=C[C@]4(C)[C@H]3[C@@H](O)C[C@@]12C` [Ciclesonide], for which the “nuclei number (z-score)” value was inactive: -0.44.
Turning to `Nc1nc(Cl)nc2c1ncn2[C@@H]1O[C@H](CO)[C@@H](O)[C@@H]1F` [Clofarabine], the “nuclei number (z-score)” value was active: -4.1.
Next, `COc1ccc(-c2cc(=O)c3c(O)cc(O)cc3o2)cc1O` [Diosmetin]: inactive: 7.
With `CN1CC[C@H](c2c(O)cc(O)c3c(=O)cc(-c4ccccc4Cl)oc23)[C@H](O)C1` [Flavopiridol (Alvocidib)], the “nuclei number (z-score)” value is active: -6.22.
With `CN1CC[C@H](c2c(O)cc(O)c3c(=O)cc(-c4ccccc4Cl)oc23)[C@H](O)C1` [Flavopiridol HCl], the “nuclei number (z-score)” value was active: -7.76.
In the case of `CN(C)Cc1c(C(=O)NCCOc2ccc(C(=O)NO)cc2)oc2ccccc12`, the “nuclei number (z-score)” value was active: -3.16.
The value for `CC(C)NCC(O)COc1ccc(COCCOC(C)C)cc1` (stereo not given) [Bisoprolol fumarate] was inactive: 3.09.
On to `NC(=O)c1cnc2[nH]ccc2c1NC1[C@@H]2CC3C[C@H]1CC(O)(C3)C2` (stereo not given in full), for which the “nuclei number (z-score)” value was inactive: 0.0414.
`O=C1CN2Cc3c(ccc(Cl)c3Cl)N=C2N1` [Anagrelide HCl]: the “nuclei number (z-score)” value was inactive: 1.27.
For the molecule `CC(=O)N1c2ccc(-c3ccc(C(=O)O)cc3)cc2[C@H](Nc2ccc(Cl)cc2)C[C@@H]1C`, the “nuclei number (z-score)” value was active: -2.76.
Next, `CC[C@H]1OC(=O)[C@H](C)[C@@H](O[C@H]2C[C@@](C)(OC)[C@@H](O)[C@H](C)O2)[C@H](C)[C@@H](O[C@@H]2O[C@H](C)C[C@H](N(C)C)[C@H]2O)[C@](C)(O)C[C@@H](C)/C(=N\OCOCCOC)[C@H](C)[C@@H](O)[C@]1(C)O` [Roxithromycin]: inactive: 0.276; `Nc1nc(F)nc2c1ncn2[C@@H]1O[C@H](CO)[C@@H](O)[C@@H]1O` [Fludarabine]: inactive: -1.95.
The value for `O=c1[nH]c(=O)n(C2CC(O)C(CO)O2)cc1Br` (stereo not given) [Bromodeoxyuridine (BrdU)] was inactive: 1.11; that for `O=C(NCCS(=O)(=O)c1ccc(C(F)(F)F)cn1)c1ccc(Cl)cc1` was inactive: -0.178.
`C=C1CC[C@H](O)C/C1=C/C=C1\CCC[C@]2(C)[C@@H]([C@H](C)CCCC(C)(C)O)CC[C@@H]12` [Calcifediol]: the “nuclei number (z-score)” value is inactive: -0.468.
Next, `CC(C)CC(=O)Nc1n[nH]c2c1CN(C(=O)C1CCN(C)CC1)C2(C)C`: active: -4.58.
For the molecule `Nc1nc(=O)c2nc(CNc3ccc(C(=O)N[C@@H](CCC(=O)O)C(=O)O)cc3)cnc2[nH]1` [Folic acid], the “nuclei number (z-score)” value was inactive: -0.199.
As for `NC(CO)(CO)CO` [Trometamol], the “nuclei number (z-score)” value was inactive: 0.657.
The value for `O=C(CCCCCCNC(=O)c1cnc(N(c2ccccc2)c2ccccc2)nc1)NO` [Rocilinostat (ACY-1215)] was active: -3.86; that for `O=c1ncccn1[C@@H]1O[C@H](CO)[C@@H](O)[C@H]1O` [Zebularine] was inactive: -0.36; that for `NC(=O)N1c2ccccc2C=Cc2ccccc21` [Carbamazepine] was inactive: 0.307.
In the case of `CC(C)n1nc(-c2cc3cc(O)ccc3[nH]2)c2c(N)ncnc21`, the “nuclei number (z-score)” value is inactive: -0.989.
On to `NCCC[C@H](N)C(=O)O` [L-Ornithine], for which the “nuclei number (z-score)” value is inactive: 2.09.
The value for `Clc1ccc(C(Cn2ccnc2)OCc2c(Cl)cccc2Cl)c(Cl)c1` (stereo not given) [Isoconazole nitrate] was inactive: -0.483; that for `CNc1nc(Nc2cnn([C@H]3CCN(C4COC4)C[C@@H]3F)c2Cl)ncc1C(F)(F)F` was inactive: 0.41.
`O=c1cc(-c2ccc(O)cc2)oc2cc(O)cc(O)c12` [Apigenin]: the “nuclei number (z-score)” value is inactive: 3.49.
Consider `CO[C@H]1/C=C/O[C@@]2(C)Oc3c(C)c(O)c4c(c3C2=O)C2=NC3(CCN(CC(C)C)CC3)NC2=C(NC(=O)/C(C)=C\C=C\[C@H](C)[C@H](O)[C@@H](C)[C@@H](O)[C@@H](C)[C@H](OC(C)=O)[C@@H]1C)C4=O` [Rifabutin], for which the “nuclei number (z-score)” value is inactive: 0.544.
In the case of `CC(=O)OCC(COC(C)=O)OC(C)=O` [Triacetin], the “nuclei number (z-score)” value is inactive: -0.55.
Regarding `C[C@@H](N)[C@H]1CC[C@H](C(=O)Nc2ccncc2)CC1`, the “nuclei number (z-score)” value is inactive: 2.77.
In the case of `c1cnc2cc3c(cc2n1)[C@@H]1CNC[C@H]3C1` [Varenicline Tartrate], the “nuclei number (z-score)” value was inactive: 1.42.
As for `N#Cc1ccc(-c2c(-c3ncn[nH]3)sc(N3CCOCC3)c2C#N)c(F)c1`, the “nuclei number (z-score)” value was inactive: -1.54.
For the molecule `c1ccc(C2CN3CCSC3=N2)cc1` (stereo not given) [Tetramisole HCl], the “nuclei number (z-score)” value was inactive: 0.0708.
Consider `C=C1c2cccc(O)c2C(=O)C2=C(O)[C@]3(O)C(=O)C(C(N)=O)=C(O)[C@@H](N(C)C)[C@@H]3[C@@H](O)[C@H]12` [Methacycline HCl], for which the “nuclei number (z-score)” value was inactive: 1.12.
Regarding `Cn1c(=O)c2nc[nH]c2n(C)c1=O` [Theophylline], the “nuclei number (z-score)” value was inactive: -0.279.
As for `Cn1c(=O)cc(N2CCC[C@@H](N)C2)n(Cc2cc(F)ccc2C#N)c1=O` [Trelagliptin], the “nuclei number (z-score)” value is inactive: 1.44.
Take `CC(C)(C)c1[nH]cnc1/C=c1\[nH]c(=O)/c(=C/c2ccccc2)[nH]c1=O` [Plinabulin (NPI-2358)]: the “nuclei number (z-score)” value is active: -3.49.
With `Cc1c(-c2ccnn2C)cc(C(=O)NCc2ccc(S(C)(=O)=O)cn2)c(=O)n1-c1cccc(C(F)(F)F)c1` [Alvelestat (AZD9668)], the “nuclei number (z-score)” value was inactive: 0.261.
Regarding `CCCCCCCCCCCCCCCCCCOP(=O)([O-])OC1CC[N+](C)(C)CC1` [Perifosine (KRX-0401)], the “nuclei number (z-score)” value was inactive: -0.495.
For the molecule `O=C(Nc1ccc(OC(F)(F)F)cc1)c1sccc1NCc1ccnc2ccccc12`, the “nuclei number (z-score)” value was inactive: 1.98.
Take `COc1cc(/C=C/C(=O)N2CCN(CC(=O)N3CCCC3)CC2)cc(OC)c1OC` [Cinepazide maleate]: the “nuclei number (z-score)” value was inactive: 1.49.
